Source: the antibiotic and cytotoxicity screens of Wong et al. (2023)
The other results are listed elsewhere or left out.

Legend:
HSkMC = human skeletal muscle cells; test: cytotoxicity call (relative viability < 0.9); details: 10 µM
HepG2 = test: cytotoxicity call (relative viability < 0.9); details: 10 µM
S. aureus RN4220 = test: growth inhibition call (relative growth <= 0.2); details: 50 µM

COc1cc(OC)c2c(c1)OC(c1ccccc1)CC2=O (stereo not drawn)
inactive: cytotoxicity call (HSkMC) | cytotoxicity call (HepG2) | growth inhibition call (S. aureus RN4220)

C[C@@H]1CCCCO[C@@H](CN(C)C(=O)c2ccncc2)[C@H](C)CN([C@@H](C)CO)C(=O)c2cc(NS(=O)(=O)c3cn(C)cn3)ccc2O1
inactive: cytotoxicity call (HSkMC) | cytotoxicity call (HepG2) | growth inhibition call (S. aureus RN4220)

C[C@H](CO)N1C[C@H](C)[C@H](CN(C)C(=O)NC2CCCCC2)Oc2ncc(C#CC(C)(C)O)cc2C1=O
inactive: cytotoxicity call (HSkMC) | cytotoxicity call (HepG2) | growth inhibition call (S. aureus RN4220)

CC(=O)O[C@@H]1C[C@@H]2CC[C@@]1(C)C2(C)C
inactive: cytotoxicity call (HSkMC) | cytotoxicity call (HepG2) | growth inhibition call (S. aureus RN4220)

C[C@@H]1CN([C@@H](C)CO)C(=O)c2cc(NC(=O)Cc3ccccc3)ccc2O[C@@H](C)CCCCO[C@H]1CN(C)C(=O)CCC(F)(F)F
inactive: cytotoxicity call (HSkMC) | cytotoxicity call (HepG2) | growth inhibition call (S. aureus RN4220)

COc1ccc(CN(C)C[C@@H]2Oc3ccc(NC(=O)Cn4cnnn4)cc3CC(=O)N([C@@H](C)CO)C[C@H]2C)cc1
inactive: cytotoxicity call (HSkMC) | cytotoxicity call (HepG2) | growth inhibition call (S. aureus RN4220)

COc1ccccc1-c1cnc2c(c1)C(=O)N([C@@H](C)CO)C[C@H](C)[C@H](CN(C)C(=O)c1cccnc1)O2
inactive: cytotoxicity call (HSkMC) | cytotoxicity call (HepG2) | growth inhibition call (S. aureus RN4220)

CCOC(=O)c1c[nH]c(=S)[nH]c1=O
inactive: cytotoxicity call (HSkMC) | cytotoxicity call (HepG2) | growth inhibition call (S. aureus RN4220)

CNC[C@H]1OCCCC[C@H](C)Oc2ccc(NS(=O)(=O)c3cn(C)cn3)cc2C(=O)N([C@@H](C)CO)C[C@@H]1C
inactive: cytotoxicity call (HSkMC) | cytotoxicity call (HepG2) | growth inhibition call (S. aureus RN4220)

NC(=O)c1ccccc1NC(=O)CCC(=O)O
inactive: cytotoxicity call (HSkMC) | cytotoxicity call (HepG2) | growth inhibition call (S. aureus RN4220)

C[C@@H]1CCCCO[C@H](CN(C)S(=O)(=O)c2cn(C)cn2)[C@H](C)CN([C@@H](C)CO)C(=O)c2cc(NS(=O)(=O)c3cn(C)cn3)ccc2O1
inactive: cytotoxicity call (HSkMC) | cytotoxicity call (HepG2) | growth inhibition call (S. aureus RN4220)
